Source: patent US20230089255A1, “COMBINATIONS OF DGK INHIBITORS AND CHECKPOINT ANTAGONISTS” (BRISTOL-MYERS SQUIBB COMPANY, priority 2019, published 2023)
Like-named read-outs stand apart in the source and are kept apart here. Values belong to the molecule of their own block, whether it stands above or below them.

Key:
human DGKα = target: T1, human DGKα (Homo sapiens, UniProt P23743); assay: DGKα LIPGLO in vitro DGK inhibition assay (extruded liposome substrate); type: biochemical
T1 construct: TVMV protease cleavage site (C); Hexa-His (C); made in house; host or cells: Sf9 insect cells (baculovirus)

human DGKζ = target: T2, human DGKζ (Homo sapiens, UniProt Q13574); assay: DGKζ LIPGLO in vitro DGK inhibition assay (extruded liposome substrate); type: biochemical; settings: 5 nM enzyme, read-out: DGKz LIPGLO IC50
T2 construct: TVMV protease cleavage site (C); Hexa-His (C); made in house; host or cells: Sf9 insect cells (baculovirus)

OT-1 CD8 T cells = assay: OT1 CD8 T cell / peptide-pulsed MC38 co-culture IL-2 assay; type: cell-based, mouse; settings: MC38 pulsed with OVA, A2, Q4, T4, Q4H7 peptides, FIGS. 4A-F
Method: This assay was conducted as follows: MC38 cells (murine colon adenocarcinoma cells) were acquired from and cultured in 10% fetal bovine serum (Invitrogen/ThermoFisher Scientific) and RPMI 1640 Medium (Gibco/ThermoFisher Scientific). Ova and heteroclitic peptide variants were acquired from AnaSpec and resuspended according to manufacturer's protocol. MC38 cells were pulsed with 1 μg/mL of peptide or indicated concentration for 3 hours then free peptide was washed out. […] MC38-protein pulsed cells were added to the plate and co-cultured overnight at 37° C. Supernatants were collected and IL-2 was measured using AlphaLISA (PerkinElmer).

HCT116-GFP cells = assay: CMV specific human CD8 T cell / peptide-pulsed HCT116-GFP co-culture; type: cell-based
Method: The assay was conducted as follows: HCT116-GFP (human colorectal cancer) cells were acquired from Cellomics. HCT116-GFP were pulsed with A2 and B35 peptides (Astarte) at indicated concentrations for 1 hour followed by washout. Cells were plated and allowed to adhere overnight. CMV specific human CD8 T cells (Astarte) were thawed, treated with DGKi Compound 15 for 1 hour then added to the HCT116-GFP cells. Supernatant was collected at 24 hours post co-culture and IFNg was measured using AlphaLISA (PerkinElmer). Images of GFP were taken using a fluorescent microscope.

[1] = system: HCT116-GFP B2M knock-out clones; assay: CMV specific human CD8 T cell / B2M CRISPR KO HCT116-GFP co-culture IFN-γ assay; type: cell-based; settings: tumor cells having reduced class I MHC; 24 hours; FIG. 6B
Method: The assay was conducted as follows: HCT116-GFP were acquired from Cellomics and cultured in 10% fetal bovine serum (Invitrogen/ThermoFisher Scientific) and RPMI 1640 Medium (Gibco/ThermoFisher Scientific). B2M guide RNA (Synthego) was introduced to HCT116-GFP cells by nucleofection (Lonza). After recovery, cells were plated in individual wells to generate single cell clones. Clones were stained for B2M (Biolegend) and evaluated by flow cytometry. Clones were then pulsed with A2 or B35 peptides (Astarte) at 1 mg/mL for 1 hour followed by washout. Cells were plated and allowed to adhere overnight. CMV specific human CD8 T cells (Astarte) were thawed, treated with DGKi Compound 15 for 1 hour and then added to the HCT116 cells. Supernatant was collected at 24 hours post co-culture and IFN-γ was measured using AlphaLISA (PerkinElmer).

[2] = target: OT1 TCR specific for ovalbumin; assay: TCR binding affinities of OVA peptide variants; parameters: species or system mouse; settings: read-out: KD (μM), TCR binding affinity
human venous whole blood = assay: Human whole blood IFN-γ assay; type: cell-based; settings: anti-CD3 and anti-CD28 1 μg/mL, 100% = 3 μM reference compound, read-out: INFg Whole Blood Normalized Agonist EC50
Method: Human venous whole blood (22.5 μL per well), obtained from healthy donors, was pre-treated with compounds for one hour at 37° C. in a humidified 95% air/5% CO2 incubator. The blood was stimulated with 2.5 μL anti-human CD3 and anti-CD28 mAb at a final concentration of 1 μg/mL each for 24 hours at 37° C. IFN-γ in the supermatants was measured using AIphLNSA kit (Cat#AL217).

naïve human CD8 T cells = assay: Human CD8 T cells IFN-γ assay; type: cell-based; settings: anti-CD3 plus anti-CD28; 100% = 3 μM reference compound; read-out: HuCD8 INFG Normalized EC50
Method: Frozen naïve human CD8 T cells were thawed in AIM-V media, incubated for 2 h in 37° C., and counted. The 384-well tissue culture plate was coated overnight at 4° C. with 20 μL anti-human CD3 at 0.05 μg/mL in PBS, which was removed off the plate before 40,000 cells per 40 microliters CD8 T cells with 0.1 μg/mL soluble anti-human CD28 were added to each well. The compounds were transferred using an Echo liquid handler to the cell plate immediately after the cells were plated. After 20 h incubation at 37° C. incubator, 3 microliters per well supernatants transferred into a new 384-well white assay plate for cytokine measurement.
Interferon-γ (IFN-γ) was quantitated using the AlphLISA kit (Cat#AL217) as described by the manufacturer manual (Perkin Elmer). The counts from each well were converted to IFN-γ concentration (pg/mL).

[3] = target: OT1 TCR (class I restricted transgenic TCR of OT1 mice, specific for ovalbumin peptide SIINFEKL); assay: TCR binding affinity of the peptide; method not stated
[4] = extruded liposome substrate, 5 nM enzyme, read-out: DGKa LIPGLO IC50

Molecule: Cn1c(=O)c([N+](=O)[O-])c(N2CCN(C(c3ccc(F)cc3)c3ccc(F)cc3)CC2)c2nc(C#N)ccc21 [DGKi Compound 15, 8-(4-(bis(4-fluorophenyl)methyl)piperazin-1-yl)-5-methyl-7-nitro-6-oxo-5,6-dihydro-1,5-naphthyridine-2-carbonitrile]
IC50 (human DGKα): 3.4 µM | IC50 (human DGKζ): 0.21 µM | antigen requirement for T cell antigen recognition and activation (IL-2 secretion) (OT-1 CD8 T cells): lowers both the affinity requirement and the concentration requirement of antigen | human CTL effector function (IFNg secretion) (HCT116-GFP cells; 24 hours post co-culture, FIG. 5A): increases human CTL effector function | tumor cell killing (HCT116-GFP cells; HCT116-GFP, day 3, FIG. 5B): enhances tumor cell killing | IFN-γ levels from T cells [1]: increases IFN-γ levels

Molecule: CCC(c1ccc(OCC2CC2)cc1F)N1C[C@H](CC)N(c2nc(=O)n(C)c3ccc(C#N)nc23)C[C@H]1CC (single isomer, unassigned) [DGKi Compound 30]
EC50 (human venous whole blood; Homo sapiens, 24 h): 11.3 µM

Molecule: SIIQFEKL (peptide-MHC, part only; not given: MHC class I heavy chain, b2m, part only) [Q4 peptide (SIIQFEKL), derivative of the OVA peptide]
Kd [3]: 36 µM

Molecule: SIITFEKL (peptide-MHC, part only; not given: MHC class I heavy chain, b2m, part only) [T4 peptide (SIITFEKL), derivative of the OVA peptide]
Kd [3]: 122 µM

Molecule: SIIQFEHL (peptide-MHC, part only; not given: MHC class I heavy chain, b2m, part only) [Q4H7 peptide (SIIQFEHL), derivative of the OVA peptide]
Kd [3]: 167 µM

Molecule: SAINFEKL (peptide-MHC, part only; not given: MHC class I heavy chain, b2m, part only) [A2 peptide (SAINFEKL), derivative of the OVA peptide]
Kd [3]: 4 µM

More lines, main results first:

Kd [2]: 36 µM
Molecule: SIIQFEKL [Q4, derivative of the OVA peptide]

Kd [2]: 4 µM
Molecule: SAINFEKL [A2, derivative of the OVA peptide]

IC50 (human DGKα; [4]): 0.14 µM | IC50 (human DGKζ): 0.57 µM
Molecule: 8-[(2S,5R)-4-[1-(2,6-difluorophenyl)ethyl]-2,5-dimethylpiperazin-1-yl]-5-methyl-6-oxo-5,6-dihydro-1,5-naphthyridine-2-carbonitrile [DGKi Compound 11]
EC50 (naïve human CD8 T cells): 0.022 µM | EC50 (human venous whole blood; 24 hours): 0.65 µM

IC50 (human DGKα; [4]): 0.57 µM | IC50 (human DGKζ): 0.46 µM
Molecule: CCC(c1ccc(F)cc1F)N1C[C@H](C)N(c2cc(=O)n(C)c3ccc(C#N)nc23)C[C@H]1C (stereo partly drawn) [DGKi Compound 12, 8-((2S,5R)-4-(1-(2,4-difluorophenyl)propyl)-2,5-dimethylpiperazin-1-yl)-5-methyl-6-oxo-5,6-dihydro-1,5-naphthyridine-2-carbonitrile]

Kd [2]: 1 µM
Molecule: SIINFEKL [OVA, ovalbumin peptide recognised by the OT1 TCR]

Kd [2]: 122 µM
Molecule: SIITFEKL [T4, derivative of the OVA peptide]

Kd [2]: 167 µM
Molecule: SIIQFEHL [Q4H7, derivative of the OVA peptide]
